{
  "source": "PubChem BioAssay AID686979",
  "about": "(National Center for Advancing Translational Sciences (NCATS), 2013)",
  "note": "The campaign covered roughly 420,000 compounds. About 50,000 (12%) were called active. The shares of active, inactive and inconclusive entries below differ from those in the screen. Calls come from the whole dose curve; as a rule, active = well fitted inhibition curve with a large enough effect; inconclusive = small, poorly fitted or top-dose-only effect; inactive = flat fitted curve, though single readings scatter. No potency is given beside an inconclusive call; the fits are too rough. % is set by controls: 0 for no effect and ±100 for the full control effect; potency is the fitted concentration of half-maximal effect; tags give direction and shape of the fitted curve.",
  "data": [
    {"test": "qHTS for Inhibitors of human tyrosyl-DNA phosphodiesterase 1 (TDP1): qHTS in cells in presence of CPT; note: nearly all actives have a fitted effect of over 55% in size", "conditions": "chicken DT40 Tdp1-/-;hTDP1 cells + 20 nM CPT, ATP luminescence, 48 h; activity change, negative = growth inhibition: at 46.2 µM (top of the series) unless noted", "how_it_was_run": "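Chicken DT40 Tdp1-/- cells stably complemented with human TDP1 were seeded at 400 cells/well in medium containing 20 nM camptothecin, exposed to pin-transferred compounds, and grown at 37 °C for at least 48 hr. Viability was read as ATP luminescence.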", "values": [
      {"compound": "Cc1ccc(NC(=O)CSc2nc3ccc(NC(=O)c4ccco4)cc3s2)cc1", "Potency": "inconclusive [inhibitor, partial curve, poor fit]"},
      {"compound": "COCCNC(=S)Nc1ccc2nc(N3CCOCC3)cc(C)c2c1", "Potency": "inactive"},
      {"compound": "CCOc1ccc(S(=O)(=O)N2CCCC(C(=O)Nc3ccccc3)C2)cc1", "note": "(stereo not drawn)", "Potency": "inconclusive [inhibitor, partial curve]"},
      {"compound": "C#CCOCCOCCOCCNc1nc(N2CCN(C(=O)CCCCCCCCCCNC(=O)[C@H](CCCCN)n3cc(C)nn3)CC2)nc(N2CCN(C(=O)CCCCCCCCCCNC(=O)[C@H](CCCN=C(N)N)n3cc(C[C@@H](C)CC)nn3)CC2)n1", "Potency": "active: 23.1 µM"},
      {"compound": "CC(C)(C)c1nc(SCC(=O)Nc2ccc(N3CCOCC3)cc2)c2ccccc2n1", "Potency": "inconclusive [inhibitor, single point]"},
      {"compound": "CCCCOC(=O)c1ccc(NC(=O)CSc2nncn2C)cc1", "activity change, negative = growth inhibition": "inconclusive: -30% [inhibitor]"},
      {"compound": "CCOC(=O)c1[nH]c(C)c(C(=O)N2CCN(c3ccccc3)CC2)c1C", "Potency": "inactive"},
      {"compound": "Cc1ccc(S(=O)(=O)NC(=O)c2ccc(Br)o2)c(C)c1", "activity change, negative = growth inhibition": "inconclusive: -4.43% [inhibitor]"},
      {"compound": "CC(C)NC(=O)COC(=O)c1ccccc1Oc1ccccc1", "Potency": "inactive"},
      {"compound": "Cc1cc(Br)ccc1NC(=O)CN1CCN(c2ccccn2)CC1", "Potency": "inactive"},
      {"compound": "CCCCN(CC)C(=O)Cc1cn(C)c2ccccc12", "Potency": "inconclusive [inhibitor, single point]"},
      {"compound": "Cc1cccc(Oc2cc([N+](=O)[O-])cc3c2C(=O)Nc2ccccc2O3)c1", "Potency": "inconclusive [inhibitor, partial curve]"},
      {"compound": "COc1ccc(C2(CNC(=O)Cc3ccccc3)CCCC2)cc1OC", "Potency": "inconclusive [inhibitor, single point]"},
      {"compound": "NC(c1csc(NC(=O)Nc2ccccc2Oc2ccccc2)n1)c1ccccc1Cl", "note": "(stereo not drawn)", "Potency": "inconclusive [inhibitor, single point]"},
      {"compound": "COc1ccc(N2CCN(CCCNC(=O)CN3C(=O)COc4ccccc43)CC2)cc1", "Potency": "inconclusive [inhibitor, single point]"},
      {"compound": "CCCNc1c(NS(=O)(=O)c2ccc(C(C)(C)C)cc2)c(=O)oc2ccccc12", "Potency": "inconclusive [inhibitor, single point]"},
      {"compound": "OCCN1CCN(CC(O)COCCOc2ccc(Br)cc2)CC1", "note": "(stereo not drawn)", "Potency": "inconclusive [inhibitor, single point]"},
      {"compound": "CCCCc1ccc(NC(=O)CSc2nc(=O)n(CCCN3CCOCC3)c3c2CCC3)cc1", "Potency": "inconclusive [inhibitor, partial curve]"},
      {"compound": "Cc1ccc2occ(/C=N/NC(=O)c3ccc(O)cc3)c(=O)c2c1", "Potency": "inconclusive [inhibitor, single point]"},
      {"compound": "CC(=O)c1ccc(NC(=O)c2ccc(-c3nc(CSc4ccc(C)cc4)c(C)o3)cc2)cc1", "Potency": "inconclusive [inhibitor, partial curve]"},
      {"compound": "COc1cccc(CNc2ncn[nH]2)c1OCc1ccc(F)cc1", "Potency": "inactive"},
      {"compound": "Cc1cc(C)n(CCC(=O)N/N=C/c2ccc(O)cc2O)n1", "Potency": "inconclusive [inhibitor, single point]"},
      {"compound": "CCc1ccc(NC(=O)c2cnc3c(-c4ccccc4)c(C)nn3c2C)cc1", "Potency": "inconclusive [inhibitor, partial curve]"},
      {"compound": "CCC(c1nnc(SCC(=O)Nc2ccc(C(=O)N(C)C)cc2)n1Cc1ccccc1)N(C)C", "note": "(stereo not drawn)", "Potency": "inactive"},
      {"compound": "O=c1c2ccccc2sn1-c1cccc(Cl)c1", "Potency": "active: 1.84 µM"},
      {"compound": "Cc1ccc(CNC(=O)c2ccc(OCC3CCCO3)cc2)cc1", "note": "(stereo not drawn)", "Potency": "inactive"},
      {"compound": "O=C(Nc1ccccc1Cl)N1CCC2(CC1)Oc1ccccc1C(=O)N2Cc1ccc(F)cc1", "Potency": "inconclusive [inhibitor, single point]"},
      {"compound": "COCCN(C(=O)CSc1nnc(-c2ccccc2F)n1N)c1c(N)n(Cc2ccccc2)c(=O)[nH]c1=O", "Potency": "inactive"},
      {"compound": "Cc1ccc(O)c(C(=O)c2cnc3c(c2)COc2ccc(C)cc2-3)c1", "Potency": "inconclusive [inhibitor, full curve, poor fit]"},
      {"compound": "CCc1nc2cccnc2n1-c1ccc(CC(=O)O)cc1", "Potency": "inactive"},
      {"compound": "Cc1ccc(NC(=S)NCc2ccc3[nH]c4c(c3c2)CCCC4)cc1", "Potency": "inconclusive [inhibitor, single point]"},
      {"compound": "CN(C)c1cc2c3ccccc3ccc2c2ccccc12", "Potency": "inconclusive [inhibitor, single point]"},
      {"compound": "COc1ccc(-c2nc3c(Cl)cc(C(F)(F)F)cn3c2Cc2cccc(F)c2)cc1OC", "Potency": "active: 23.1 µM"},
      {"compound": "COCC1CCCN(Cc2ccc3c(c2)CN(C(=O)c2ccc(-c4ccc(C)o4)cc2)CCO3)C1", "note": "(stereo not drawn)", "activity change, negative = growth inhibition": "inactive: 11.7% [at 9.04 µM]"},
      {"compound": "COc1ccc(/C=C2\\OC(=O)c3c(OC)cccc32)cc1OC", "Potency": "inactive"},
      {"compound": "CC1(C)CC(=O)C2=C(C1)N(Cc1cccnc1)C(=O)C2(NC(=O)c1ccc(F)cc1)C(F)(F)F", "note": "(stereo not drawn)", "Potency": "inconclusive [inhibitor, single point]"},
      {"compound": "CCN(C(=O)c1ccco1)c1nc(CC(=O)Nc2ccc(Cl)cc2)cs1", "Potency": "inconclusive [inhibitor, single point]"},
      {"compound": "Cc1ccc(S(=O)(=O)N2CCN(c3nc(-c4ncco4)nc4ccccc34)CC2)cc1", "Potency": "active: 11.2 µM"},
      {"compound": "COc1ccc(Br)cc1C(=O)Nc1ccccc1N1CCN(C(=O)c2ccccc2)CC1", "Potency": "inconclusive [inhibitor, single point]"},
      {"compound": "Cc1cccc(-c2nc3c4ccccc4nc(N4CCN(c5cccc(Cl)c5)CC4)n3n2)c1", "Potency": "inconclusive [inhibitor, single point]"},
      {"compound": "O=C(NCc1ccccc1)C1c2ccccc2OCC(=O)N1Cc1ccccc1", "note": "(stereo not drawn)", "Potency": "inconclusive [inhibitor, single point]"},
      {"compound": "Cn1c(-c2c(N)n(CCc3ccccc3)c3nc4ccccc4nc23)nc2ccccc21", "Potency": "active: 25.9 µM"},
      {"compound": "O=C(NCc1ccccn1)c1ccc(Cl)c(S(=O)(=O)N2CCOCC2)c1", "Potency": "inactive"},
      {"compound": "CC(C)N(C(=O)[C@H]1C[C@H](CC(=O)NC(C)(C)C)C(=O)N2CCc3c([nH]c4cc(-c5ccco5)ccc34)[C@]12C)C(C)C", "Potency": "inconclusive [inhibitor, single point]"},
      {"compound": "COc1ccc(OC)c(S(=O)(=O)N2CCC(C(=O)Nc3ccc(C)c(C)c3)CC2)c1", "Potency": "active: 16.4 µM"},
      {"compound": "CC1(C)CC(=O)C=C(NNC(=O)c2ccccc2O)C1", "activity change, negative = growth inhibition": "inconclusive: -31.3% [inhibitor]"},
      {"compound": "COc1ccc(NS(=O)(=O)c2cccc3nsnc23)cc1OC", "Potency": "inconclusive [inhibitor, single point]"},
      {"compound": "O=C(c1ccc(Cl)cc1)C1CCCN(Cc2ccc(Oc3ncccn3)cc2)C1", "note": "(stereo not drawn)", "Potency": "inconclusive [inhibitor, single point]"},
      {"compound": "Cc1noc(C)c1CN1C(=O)NC(Cc2ccccc2)(Cc2ccccc2)C1=O", "Potency": "inconclusive [inhibitor, single point]"},
      {"compound": "COc1ccc(NC(=O)c2sc3nc(N4CCOCC4)c4c(c3c2N)CCCC4)cc1", "Potency": "inactive"},
      {"compound": "O=C1C=C(c2ccc3ncccc3c2)C[C@@H](c2ccc3c(c2)OCO3)C1", "Potency": "active: 2.06 µM"},
      {"compound": "CCOC(=O)c1c(NC(=O)CSc2ncccn2)sc(C(=O)NC)c1C", "Potency": "inconclusive [inhibitor, single point]"},
      {"compound": "CCc1ccccc1NC(=O)Cn1c(=O)n(CCc2ccccc2)c(=O)c2sc3ccccc3c21", "Potency": "inactive"},
      {"compound": "N#C/C(=C\\c1ccc(N2CCOCC2)o1)C(=O)NCC1CCCO1", "note": "(stereo not drawn)", "Potency": "inactive"},
      {"compound": "CCC1(c2ccc(Cl)cc2)NC(=S)N(c2ccccc2)N1", "note": "(stereo not drawn)", "Potency": "inconclusive [inhibitor, partial curve, poor fit]"},
      {"compound": "COc1ccc(-c2c3c(nc4sc(C(=O)Nc5cccc(OC)c5)c(N)c24)CC(C)(C)CC3=O)cc1", "Potency": "inconclusive [inhibitor, single point]"},
      {"compound": "Cc1ccc(S(=O)(=O)N(CCO)Cc2cc3ccc(C)c(C)c3[nH]c2=O)cc1", "Potency": "inconclusive [inhibitor, partial curve]"},
      {"compound": "O=C(CCCCCNC(=O)c1ccccc1)N/N=C/c1ccccc1O", "Potency": "inactive"},
      {"compound": "COc1cc(NC(=O)c2sc3ncn(CC(=O)N4CCC(C)CC4)c(=O)c3c2C)cc(OC)c1OC", "Potency": "inconclusive [inhibitor, single point]"},
      {"compound": "CN(C)/N=C/c1ccc(Sc2ccccc2[N+](=O)[O-])o1", "Potency": "inconclusive [inhibitor, single point]"},
      {"compound": "Cc1cc(C)cc(Cn2cc(CN3CC(N4CCN(Cc5ccccc5F)CC4)CS3(=O)=O)nn2)c1", "note": "(stereo not drawn)", "Potency": "inconclusive [inhibitor, single point]"},
      {"compound": "Cc1cc(C(=O)N2CCN(c3ccccc3F)CC2)c2c(C)nn(-c3ccccc3)c2n1", "Potency": "inconclusive [inhibitor, single point]"},
      {"compound": "CCOc1ccc2ccccc2c1/C=N/NC(=O)CNC(=O)c1ccccc1O", "Potency": "inactive"},
      {"compound": "COc1ccc(CCNC(=O)c2ccc(Cn3c(=O)c4cccn4c4cccnc43)cc2)cc1OC", "Potency": "inactive"},
      {"compound": "CN(CC(=O)Nc1ccc(F)cc1)C(=O)COc1ccccc1Cc1ccccc1", "Potency": "inconclusive [inhibitor, single point]"},
      {"compound": "O=C(COC(=O)c1ccc[nH]c1=O)NC1CCCCC1", "Potency": "inactive"},
      {"compound": "COc1ccc(-c2cc3nc(C)cc(-c4ccc(OC)cc4)n3n2)cc1", "Potency": "inconclusive [inhibitor, single point]"},
      {"compound": "CC(C)Oc1cccc(NC(=O)C2(C)CCN2C(C)C)c1", "note": "(stereo not drawn)", "Potency": "inconclusive [inhibitor, single point]"}
    ]}
  ]
}
